Reference: PubChem BioAssay AID463173 (ICCB-Longwood Screening Facility, Harvard Medical School, 2010)
Among all 52,000 compounds or so, about 1,700 (3.3%) were called active. Cut-off read from the data, not from the text of the source: active = survival mostly below about 52% (no sharp cut-off); inactive = mostly above about 56%. Some of the results follow.

Each compound was assayed on Wild type (assay: S. aureus survival, RN4220 and DeltatarO strains – OD600, teichoic acid synthesis inhibitors, primary screen (AID 463173)). Settings: S. aureus RN4220 wild type/DeltatarO growth, OD600, 18 h, active compounds read low, screened at 18.75 µg/mL (by protocol).

SMILES	survival
Cc1nc2sccn2c(=O)c1S(=O)(=O)Nc1ccc(N2CCOCC2)cc1	inactive: 93%
Cc1cc(=O)[nH]c2nnc(SCc3c(F)cccc3Cl)n12	inactive: 140%
Cc1ccc(OCc2nc(-c3ccc(C(=O)N4CCN(c5cccc(C(F)(F)F)c5)CC4)cc3)oc2C)cc1	inactive: 70%
N#CC(C#N)=Cc1ccc(OCC(O)Cn2c3ccccc3c3ccccc32)cc1 (stereo not given)	inactive: 106%
CCOC(=O)CCn1cnc2onc(-c3cc(OC)ccc3Cl)c2c1=O	inactive: 84%
CCOc1ccc2c(c1)sc1nc(=O)n(-c3ccc(Cl)c(Cl)c3)c(=O)n12	inactive: 74%
COc1ccc(N(CC(C)C)S(=O)(=O)c2nnc(NC(=O)c3cccs3)s2)cc1	inactive: 50%
NS(=O)(=O)c1ccc(N(C(=O)Cn2nnc3ccccc32)C(C(=O)NC2CCCC2)c2cccs2)cc1 (stereo not given)	inactive: 102%
CSc1cccc(NC(=O)C2CCN(S(=O)(=O)c3ccc4c(c3)CCCN4C(=O)C3CCC3)CC2)c1	inactive: 68%
O=C(Nc1ccc2nc(SCC(=O)N3CCc4ccccc43)sc2c1)c1cccc(F)c1	inactive: 87%
CCOC(=O)c1sc(=S)n(C)c1C	inactive: 111%
COc1ccc(Cl)cc1NC(=O)CSc1nc2ccccc2c2nc(-c3ccccc3)nn12	inactive: 71%
Cc1ccccc1-c1nc(CS(=O)(=O)CC(=O)NCCc2ccccc2)c(C)o1	inactive: 84%
Cc1cccc(NC(=O)c2ccc3c(O)c(S(=O)(=O)c4ccccc4)c(=O)[nH]c3c2)c1C	inactive: 89%
Cc1ccc(C(=O)Nc2ccccc2)cc1S(=O)(=O)Nc1ccc(Br)cc1	active: 7%
Cc1ccc(C(=O)N2CCc3cc(CNC(=O)c4ccc(Br)cc4)ccc32)cc1	inactive: 75%
COc1ccc(CSc2nnc(C)s2)cc1F	inactive: 98%
O=S(=O)(c1ccc(-c2cc(C(F)(F)F)on2)s1)N1CCN(c2ccccc2)CC1	inactive: 83%
COCCNC(=O)CCn1c(=O)c2cc(OC)c(OC)cc2n(CC(=O)Nc2ccccc2C)c1=O	inactive: 92%
CS(=O)(=O)NCC(c1ccco1)N1CCN(c2ccc(F)cc2)CC1 (stereo not given)	inactive: 112%
CCOC(=O)c1cnc2c(Cl)cc(Cl)cc2c1Nc1cc(C(=O)O)ccc1C	inactive: 61%
Cc1cccc(C)c1NC(=O)C(=O)NCC(c1ccc2c(c1)OCO2)N1CCOCC1 (stereo not given)	inactive: 66%
CCN(C(=O)CSc1nnc2scc(-c3cccc(OC)c3)n12)c1ccccc1	inactive: 110%
CCc1ccccc1NC(=O)Nc1cc(C(=O)NCc2cccc(F)c2)ccc1N1CCCC1	inactive: 78%
COCCCn1c(=N)c(C(=O)NCc2ccco2)cc2c(=O)n3cccc(C)c3nc21	inactive: 75%
Cc1oc(-c2cccc(Cl)c2)nc1CN1CCCC(C(=O)NCCc2ccc(Cl)cc2)C1 (stereo not given)	active: -2%
CCc1ccc(S(=O)(=O)c2nnn3c2nc(Nc2ccc(C)c(Cl)c2)c2sccc23)cc1	inactive: 85%
O=C(Cn1ncn2nc(-c3cccs3)cc2c1=O)NCc1ccc(Cl)cc1	inactive: 90%

SMILES	survival
CC(C)CNC(=O)C(=O)Nc1c2c(nn1-c1ccccc1)CS(=O)(=O)C2	inactive: 72%
CCn1c(SCc2cccc(Br)c2)nnc1-c1nonc1NC(C)=O	inactive: 109%
CC(=O)Nc1cc(C(=O)NCc2ccc(C)cc2)ccc1S(=O)(=O)c1ccc(Cl)cc1	inactive: 85%
CCOC(=O)CN1C(C(=O)c2ccccc2)=C(OC(=O)C(C)(C)C)c2ccccc2S1(=O)=O	inactive: 51%
CCOc1ccc2nc(NCCNC(=S)NC)c(C#N)cc2c1	inactive: 106%
CSc1cccc(NC(=O)Cn2c(=O)n(Cc3ccccc3)c(=O)c3sc4ccccc4c32)c1	inactive: 89%
Cc1cc(C)n(-c2nc3cc(Cl)ccc3nc2Nc2ccc(C)c(F)c2)n1	inactive: 86%
Cc1cc(C)c(NC(=O)c2cc(S(=O)(=O)NCCC3=CCCCC3)ccc2F)c(C)c1	inactive: 94%
Cc1ccc(-n2ncc(C(=O)NCCN3CCCC3)c2C2CCN(C(=O)OC(C)(C)C)CC2)cc1	inactive: 153%
CCn1ccc2cc(S(=O)(=O)N3CCC(C(=O)NCc4cccc(Cl)c4)CC3)ccc21	inactive: 85%
CCOC(=O)c1sc(N/C=C(\C#N)c2nc3cc(Cl)ccc3o2)c(C#N)c1C	inactive: 98%
O=C(CN(Cc1ccc2c(c1)OCO2)C(=O)c1cnsn1)NC1CCCC1	inactive: 109%
CCOc1ccc(N(C)S(=O)(=O)c2c(C(=O)N3CCC(C)CC3)c(C)n(C)c2C)cc1	inactive: 66%
Cc1cccc(-n2ncc(C(=O)N3CCN(Cc4ccccc4)CC3)c2C2CCN(C(=O)OC(C)(C)C)CC2)c1	inactive: 70%
CCOc1ccccc1NC(=O)N1c2ccccc2Sc2ccccc21	inactive: 61%
COc1ccc(Cn2c(CCC(=O)Nc3ccc(C)cc3)nc3cccnc32)cc1	inactive: 133%
COc1ccc(Nc2cc(C(=O)NCc3cccs3)c3ccccc3n2)cc1	inactive: 145%
CCCCOC(=O)Cn1nnc2sc(-c3ccccc3)cc2c1=O	inactive: 92%
CN1CCN(C(=O)C(=O)Nc2c3c(nn2-c2cccc(Cl)c2)CSC3)CC1	inactive: 60%
COc1ccc(CCNC(=O)CSc2cn(CCNC(=O)c3ccccc3F)c3ccccc23)cc1OC	inactive: 144%
O=C(CCCCn1c(=O)c2ccccc2n(CC(=O)Nc2ccc(F)cc2F)c1=O)NCc1ccccc1Cl	inactive: 115%
O=C(CSc1ncc(-c2ccccc2)[nH]1)Nc1ccc(F)cc1F	inactive: 62%
CCOc1ccc(C2=C(C(=O)CC)Sc3nncn3N2C(=O)CC)cc1	active: -1%
CCc1ccccc1N1C(=O)N(CC(=O)c2ccc(Cl)cc2)c2ccccc2S1(=O)=O	inactive: 99%
Cc1ccc(Cn2c(=O)n(CCc3ccccc3)c(=O)c3c(C)c(C)sc32)cc1	active: 22%
Cn1c(=O)n(C)c2cc(NC(=O)C(F)(F)F)ccc21	inactive: 83%
COC(=O)c1c(SC)nc2ccccc2c1OCc1ccc(C)cc1	inactive: 75%
